Some of the results follow. Further columns of the screen follow, without active or inactive calls. The list favours compounds with an active or inconclusive main result.
Experiment: beta-lactam sensitization of Mtb H37Rv, H37Rv (AID 434955);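 further: growth measured after seven days incubation then overnight dye step; 0% = bacteria only wells and 100% = bacteria with antibiotic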
Conditions: M. tuberculosis H37Rv growth with meropenem, percent inhibition; measured here: primary screen without meropenem; at 25 µM

SMILES | inhibition [%]
CCc1ccc(CN2CCC(n3nccc3NC(=O)C3CCCC3)CC2)cc1 | -15.8
CC(C)(C)CN1CCC(n2nccc2NC(=O)c2ccccc2Cl)CC1 | -3.57
CCOC(=O)c1cnc(-n2nc(C)cc2C)nc1NCc1ccc2c(c1)OCO2 | 84.2
Cc1ccc(S(=O)(=O)/N=C(/Nc2nc(C)cc(C)n2)N2CCOCC2)cc1 | 1.52
COCCN1C(=O)c2oc3cc(C)c(C)cc3c(=O)c2C1c1ccc(O)cc1 (stereo unspecified) | -5.23
COc1ccc(C2C(C(C)=O)=C(C)N=c3s/c(=C\c4ccco4)c(=O)n32)c(OC)c1 (stereo unspecified) | 6.42
COc1ccc(S(=O)(=O)N(CC(=O)Nc2ccc(S(=O)(=O)N3CCOCC3)cc2)Cc2ccc(F)cc2)cc1 | -4.96
Cc1cccc(NC(=O)c2nc[nH]c2C(=O)N[C@@H](CC(C)C)C(=O)OCc2ccccc2)c1 | 37
O=C(NC1CC1)c1ccc2c(c1)C1C3CCC(C3)C1C(c1ccccc1)N2 (stereo unspecified) | 77
CCNS(=O)(=O)c1ccc(NC(=O)c2cccnc2)cc1 | -1.68
Cc1ccc(C)c(-n2c(-c3ccco3)n[nH]c2=S)c1 | 28.2
COc1cc(NS(=O)(=O)c2ccc(NC(=O)c3ccc(Cl)cc3Cl)cc2)ncn1 | 0.49
COc1ccccc1NC(=O)COc1ccc2ccccc2c1 | 82
CN(C)c1nc(Nc2ccccc2)nc(N(C)C)n1 | -2.69
COCC(C)N1CCC(Oc2ccc(C(=O)NCc3ccccn3)cc2)CC1 (stereo unspecified) | 3.64
CC(=O)c1cccc(S(=O)(=O)N(CCCO)Cc2cc3ccc(C)cc3[nH]c2=O)c1 | -11.6
CN(CCO)c1cc(Sc2nc3ccccc3s2)c2nonc2c1[N+](=O)[O-] | 98.1
COc1ccccc1/C=C/C(=O)NCC(=O)N/N=C/c1cc(Br)ccc1OC | -1.26
O=C(c1cc2c(s1)CCCC2)n1cccn1 | 47.9
CCn1c(=NC(=O)CCS(=O)(=O)c2ccccc2)sc2cccc(OC)c21 | -5.62
Cc1ccc(-c2ccc(S(=O)(=O)Nc3cccnc3)cc2)cc1 | 3.19
COc1ccc(C(=O)NNc2ccccc2)cc1OC | 98.7

SMILES | inhibition [%]
Cc1cccc(C(=O)OCC(=O)c2ccc3c(c2)OCO3)c1O | 84.8
Cc1ccc(C)c(OCC(=O)NC2CCCCCC2)c1 | 7.8
Cc1ccc(-n2nnnc2SCC(=O)Nc2ccc(N3CCN(C)CC3)cc2)c(C)c1 | 44
C/C=C(\C)CN1CCC(n2nccc2NC(=O)c2ccc3c(c2)OCO3)CC1 | -5.08
O=C(c1ccc2nc3ccc(Cl)cc3c(=O)n2c1)N1CCOCC1 | 93.8
N#C/C(=C(/O)c1cccs1)c1nc2ccccc2[nH]1 | -1.52
CC(C)(C)c1ccccc1NC(=O)c1cccnc1 | 0.58
CCC(C)Sc1nc(O)c(Cc2ccccc2)c(=O)[nH]1 (stereo unspecified) | -3.59
CCOC(=O)c1ccc(NS(=O)(=O)c2ccc3c(c2)oc(=O)n3C)cc1 | 1.14
CCOC(=O)c1c(NC(=O)CN2C(=O)NC3(CCC(C)CC3)C2=O)sc(C)c1-c1ccc(C)cc1 (stereo unspecified) | 3.37
COc1cc(CC(=O)N2CCC(n3nccc3NC(=O)C3CC3)CC2)cc(OC)c1OC | -24.2
COc1ccc2oc(C(=O)OCC(=O)NC3CCCC3)c(C)c2c1 | 5.91
CN(C)Cc1ccc(F)cc1Sc1ccc(Cl)cc1Cl | 6.4
CCCCOc1ccc(C(=O)NCC(=O)NCC(=O)OCC)cc1 | 85.6
O=C(CCS(=O)(=O)c1ccccc1)Nc1nnc(-c2ccco2)o1 | 0.36
O=C1C=C2C=C[C@H]3C[C@]2(O1)[C@@H]1CCCCN13 | -3.54
O=C(CN1C(=O)S/C(=C\C=C\c2ccccc2)C1=O)N1CCCCC1 | -6.38
Cc1ccc(S(=O)(=O)c2nc(-c3cccs3)oc2NCc2cccnc2)cc1 | 2.04
COc1ccccc1/C=C/CN1CC(C)OC(C)C1 (stereo unspecified) | -7.72
CN(C)CCCN(C(=O)/C=C/c1cccs1)c1nc2ccc(F)cc2s1 | 36.5
CN(CC1CCCO1)S(=O)(=O)c1ccc(C(=O)Nc2ccccc2F)cc1 (stereo unspecified) | 2.32
CCCCNC(=O)Nc1cc(C(F)(F)F)c[nH]c1=O | -6.78

SMILES | inhibition [%]
O=C1CCC(C(=O)N(CCO)Cc2ccccc2)CN1CC1CCCCC1 (stereo unspecified) | 2.89
O=c1c2cc(Cl)ccc2[nH]c(=S)n1Cc1cccs1 | 5.34
COc1ccc(C(=O)NC2CCSc3ccccc32)cc1 (stereo unspecified) | 3.59
Cc1ccc(S(=O)(=O)N(C)CC(=O)N2CC(C)OC(C)C2)cc1 (stereo unspecified) | -0.12
CN1C(=O)C(C)(C)c2cc(S(=O)(=O)N3CCCC3C(=O)NCc3ccccc3Cl)ccc21 (stereo unspecified) | -11.7
O=C(NCCNc1ccc([N+](=O)[O-])cc1)c1cccc(Br)c1 | 4.97
COC(=O)c1c(C(=O)OC)c(C)n(Cc2ccco2)c1C | 3.09
O=C(Nc1ccccc1Br)c1cccc2ccccc12 | 48.6
O=C(Nc1cccc(C(F)(F)F)c1)C(Sc1cccc[n+]1[O-])c1ccccc1 (stereo unspecified) | 0.11
Cc1[nH]c2ccccc2c1C(=O)C(=O)NCCc1ccc(S(N)(=O)=O)cc1 | -0.68
O=C(/C=C/c1ccc(OC2CSC2)cc1)c1ccccc1 | 94.6
Cc1ccc(NC(=O)c2nc[nH]c2C(=O)N[C@H](C)c2ccccc2)cc1 | 90.7
COC(=O)c1sccc1S(=O)(=O)NCc1ccc(S(N)(=O)=O)cc1 | -5.33
O=C(Nc1ccnn1C1CCN(C/C=C/c2ccccc2)CC1)c1ccccc1 | 2.69
COc1ccc2nc(/N=C/c3c(C)[nH]n(-c4ccc(C)cc4C)c3=O)sc2c1 | 12
CC(=O)Nc1cccc(-c2nnc(SCC(=O)n3c4c(c5ccccc53)CCCC4)n2C)c1 | -4.77
CCOc1ccc2nc(N(CCN(C)C)C(=O)/C=C/c3cccs3)sc2c1 | 52.3
COc1cccc(-c2ccc(-c3noc(-c4ccccc4F)n3)c(OC)n2)c1 | 25.2
O=C(C[n+]1cc(Br)cc2ccccc21)c1ccc(F)cc1 | 0.44
Cn1ccnc1C(=O)Cc1ccc([N+](=O)[O-])cc1 | 8.78
CCCCN(CC)CCNC(=S)Nc1ccc2nc(N3CCN(C)CC3)cc(C)c2c1 | 5.42
CCCc1nc2c(C)ccc(C)c2c(N)c1CC | 3.33

SMILES | inhibition [%]
CCOC(=O)Cn1c(CN(C)Cc2ccccc2)nc2c1c(=O)n(C)c(=O)n2C | 0.34
CN(C(=O)CSc1nncn1C)C1CCCN(Cc2ccccc2F)C1 (stereo unspecified) | -12.1
Cn1c(=O)c2c(nc(Sc3n[nH]c(N)n3)n2Cc2ccccc2Cl)n(C)c1=O | -5.63
Cc1ccc2c(c1)-c1c(ssc1=S)C(C)(C)N2C(=O)CSC1=NCCS1 | -9.44
CCCn1cc(S(=O)(=O)c2ccccc2)c(=O)c2cc(OCC)ccc21 | 6.09
Cc1noc(C)c1CSCC(=O)N1CCN(c2ccc(F)cc2)CC1 | -6.3
Cc1ccc(S(=O)(=O)N(C)Cc2ccc(C(=O)N/N=C/c3ccc(OC(F)F)cc3)cc2)cc1 | -2.57
COc1ccccc1OCC(=O)Nc1ccccc1C(=O)N1CCCCC1 | 0.56
COc1cc(/C=N/NC(=O)CSCc2ccc([N+](=O)[O-])cc2)cc(OC)c1OC | 2.13
CCOC(=O)C(C)N1C(=O)S/C(=C\c2ccc(-c3ccccc3C(=O)O)o2)C1=O (stereo unspecified) | -6.08
Nc1nc2n(n1)C(c1ccccc1)CC(c1ccc(F)cc1)N2 (stereo unspecified) | -6.96
CCOC(=O)N1CCN(C(=O)c2oc3ccc(S(=O)(=O)N4CCOCC4)cc3c2C)CC1 | 1.42
COc1cc(S(=O)(=O)Nc2ccccn2)ccc1F | -6.24
CS(=O)(=O)c1ccc2nc(NC(=O)CN3CCN(Cc4ccccc4)CC3)sc2c1 | 5.12
O=C(NC1(C(F)(F)F)C(=O)Nc2c1c(=O)[nH]c(=O)n2Cc1ccccc1)c1ccc(Cl)cc1Cl (stereo unspecified) | 8.02
CC(C)c1nc(SCC(=O)N2CCCCCC2)c2c(=O)n(C)c(=O)n(C)c2n1 | -0.23
O=C(O)C(Cc1ccccc1)N1C(=O)/C(=C/c2cccc3ccccc23)SC1=S (stereo unspecified) | -0.88
COc1ccccc1C1c2ccc3ccccc3c2Oc2ncn(CCN(C)C)c(=N)c21 (stereo unspecified) | 93.8
CCc1cc(CNC(=O)c2cc(COc3ccc(C)nc3)on2)on1 | 1.48
COc1ccc(C2c3[nH]c4ccccc4c3C[C@H]3C(=O)N(CC(C)C)CC(=O)N23)c(OC)c1 (stereo partly specified) | 5.75
CCC(=O)NC(c1ccccc1)c1c(O)ccc2ccccc12 (stereo unspecified) | 4.72
Cc1cccc(NC(=O)c2ccc(S(=O)(=O)N3CCCCC3C)cc2)n1 (stereo unspecified) | 8.6

SMILES | inhibition [%]
COc1ccccc1NC(=O)c1ccc(Br)c(S(=O)(=O)N2CCCC2)c1 | -4.57
Cc1ccc(CN2CCC(n3nccc3NC(=O)c3ccc4c(c3)OCO4)CC2)o1 | 4.22
CCn1ncc(Br)c1C(=O)Nc1cc([N+](=O)[O-])ccc1C | 10.6
COc1ccc(C(=O)NCCCCCCNC(=O)c2ccc(OC)cc2)cc1 | 12.7
COc1ccc(/C=N/NC(=O)c2nn(C)cc2Br)cc1CSCc1ccco1 | 7.4
CN(C)S(=O)(=O)N1CCC(Oc2cccc(C(=O)NCCC3=CCCCC3)c2)CC1 | 0.43
CCOc1ccc(CCNC(=O)CCc2nnc3ccc(N4CCCC4)nn23)cc1OCC | -15.3
O=C(NCC1CCCO1)c1ccc2c(c1)ncn2-c1cccc(F)c1 (stereo unspecified) | -10.6
CCC(=O)Nc1c2c(nn1-c1ccc(C)cc1)CS(=O)(=O)C2 | -9.62
O=c1cc(C(F)(F)F)nc(SCc2cccnc2)[nH]1 | -9.69
COc1cc(OC)cc(-n2nc(C(=O)N3CC(C)CC(C)C3)c3ccccc3c2=O)c1 (stereo unspecified) | -3.54
CCCS(=O)(=O)Nc1cc(C(F)(F)F)ccc1OCCOC | 5.08
COC(=O)c1ccccc1NC(=O)CN1CCC(C(=O)c2ccc3c(c2)OCCO3)CC1 | 98.8
CCC1CCCCN1C(=O)CSc1nc2ncccc2[nH]1 (stereo unspecified) | -0.97
CCCc1nc2n[nH]c(N)c2c2c1COC(C)(C)C2 | -3.65
CC1(C)Cc2c(sc(NC(=O)C(=O)N3CCCC3)c2C(=O)O)CO1 | 1.82
CCCCCCN=C(CC)c1c(O)n(CCCC)c(=O)[nH]c1=O | 81.2
O=C1C=C2C=C[C@@H]3CC2(O1)[C@H]1CCCCN31 | 1.11
